# Results taken from the supplement of paper PMC3334620.
# In all, about 33,000 sequences were measured (“E-score (-0.5 to 0.5)”: median about -0.036, highest 2% from about 0.37 on). This is one part of the list.
# Target: T1, Yer064c (UniProt P40041)
# T1 sequence: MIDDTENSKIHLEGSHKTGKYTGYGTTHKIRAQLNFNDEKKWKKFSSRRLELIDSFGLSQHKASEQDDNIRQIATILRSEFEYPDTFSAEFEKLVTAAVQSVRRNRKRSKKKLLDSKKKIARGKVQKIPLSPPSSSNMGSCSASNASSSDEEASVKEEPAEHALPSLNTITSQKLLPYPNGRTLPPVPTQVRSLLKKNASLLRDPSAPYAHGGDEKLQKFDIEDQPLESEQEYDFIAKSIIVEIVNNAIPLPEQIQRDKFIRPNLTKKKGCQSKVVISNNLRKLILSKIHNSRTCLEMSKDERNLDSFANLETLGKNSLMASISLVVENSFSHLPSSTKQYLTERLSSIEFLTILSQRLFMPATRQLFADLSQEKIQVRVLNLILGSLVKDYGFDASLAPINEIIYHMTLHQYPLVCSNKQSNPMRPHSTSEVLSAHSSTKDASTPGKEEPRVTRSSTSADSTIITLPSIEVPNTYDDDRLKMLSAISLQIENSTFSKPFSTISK
# Assay: PBM E-score (8-mer binding enrichment) (E-score (-0.5 to 0.5)); higher = stronger / more preferred TF binding; most listed sequences are background and not binding sites
# Details: protein concentration: 200 nM; construct: GST-full length
# Method in brief: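 PURExpress in vitro transcription/translation supplied GST-tagged yeast transcription factors, either full-length or DNA-binding domain. Applied at about 100-200 nM to universal all-10-mer Agilent arrays double-stranded by primer extension, the bound protein was detected with fluorescent anti-GST. E-scores, modified Wilcoxon-Mann-Whitney statistics, were given by the Universal PBM Analysis Suite to ungapped eight-base words pooled with their reverse complements after masliner normalisation.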
row,Sequence,PBM E-score
1,CTAGATAG,0.0392
2,ATACGGAA,-0.0806
3,GATAGAAA,-0.161
4,TCCCAGGA,-0.248
5,AAATCTTC,0.0915
6,GAATTCCA,-0.00599
7,AGAGAACC,-0.167
8,CCTAAGAG,-0.078
9,ACTTGGGC,-0.129
10,TGGCCCCA,-0.321
11,AGAGAACA,-0.0209
12,ACATAGCC,0.109
13,CCCGCTGA,0.0541
14,ATTCCCGC,-0.151
15,AGGAGCCG,-0.213
16,CCCTATTC,-0.281
17,AGGCAGAG,0.0112
18,TGTGGAAA,-0.101
19,ATCTTTTC,-0.0371
20,ACTCCACC,0.127
21,GGTGGTCA,-0.072
22,AACTATTC,-0.0637

row,Sequence,PBM E-score
1,AGTTATTG,0.0222
2,CACCTCGC,-0.162
3,CAAGCGTA,-0.0586
4,CTTAACAC,0.0726
5,CCCTGCAA,-0.142
6,AAGCCCTA,-0.125
7,ACGGGAGT,0.164
8,CCCATAGG,-0.143
9,CACATTCC,0.0956
10,GTATCAAA,0.223
11,CCTTGGCA,-0.134
12,ACGGTTGC,-0.187
13,ACTTAAAA,0.225
14,ATGCGCGC,-0.127
15,GTTATCGA,-0.13
16,CTGGCCAA,0.0359
17,CGGCTATC,-0.14
18,AAGGGGCC,-0.145
19,AGTTACAG,-0.027
20,ACACGGTC,-0.142
21,CACGATAG,-0.0151
22,CCAAATGA,0.207

row,Sequence,PBM E-score
1,GATCATTA,0.128
2,CGAACGCC,-0.33
3,AGCGGAAT,-0.00939
4,AGCTGGGC,-0.162
5,GCAGTCAA,0.281
6,AGATCGAC,-0.169
7,TCCACACA,-0.0811
8,GGCATTGA,-0.103
9,AAATTCGA,-0.05
10,GCCAAGGC,-0.214
11,CTAAAAAG,0.0232
12,CAGTGTCG,-0.265
13,ATGCACTG,-0.051
14,AATATTTA,0.0684
15,TAGCAATA,0.0604
16,ACCAAAGA,0.156
17,ATTGGGAG,-0.0622
18,CACTACTC,0.112
19,AGAACAAT,-0.0126
20,CGTATAGC,-0.14
21,GTCGTAAA,0.206
22,AAAACTCC,-0.0996

row,Sequence,PBM E-score
1,AAAGTGTG,0.145
2,CCAACACC,-0.158
3,ATCTTGCA,0.16
4,CCGGACAC,-0.223
5,GAAGCACC,-0.132
6,GACTACTC,0.427
7,CCGTGCAG,-0.0727
8,AGGCGTTA,-0.123
9,CAATCCAA,-0.126
10,ATCGGATC,-0.142
11,CTCGCCGA,0.11
12,AGTATAAT,0.15
13,ACGTGTAC,-0.0329
14,TACTACCA,0.00773
15,CAAAGATA,-0.0257
16,CGTCCAGA,-0.208
17,GCATATCC,-0.255
18,GAACGCGA,0.176
19,CGAATTCG,-0.0217
20,CGCGCACC,-0.28
